# According to ChEMBL document CHEMBL4888484, “Replenishing the malaria drug discovery pipeline: Screening and hit evaluation of the MMV Hit Generation Library 1 (HGL1) against asexual blood stage Plasmodium falciparum ,using a nano luciferase reporter read-out” (2022):
# About 540 (0.36%) of roughly 150,000 compounds showed an effect of 50% or more. The list shows a part of the results.
# Test system: Plasmodium falciparum
# Test: Primary screen in NF54 nanoGlo assay, in single point, at 2uM, 72h; a lower Z score goes with more inhibition
# Format: functional, Erythrocyte
# Conditions: timepoint 72 hour
Structure (SMILES),% Inhibition [%],Z score
Cc1cc(C)c(C(=O)N2CCN(C)[C@]3(CCC(=O)N(CC4CC4)CC3)C2)cn1,-11,1.61
COc1ccc(NC(=O)N[C@H]2CCCS(=O)(=O)C2)cc1,-11,1.6
O=c1[nH]c(N2CCC(CO)CC2)nc2c1Cc1ccccc1OC2,3,-0.58
CCS(=O)(=O)N1CCC(c2nc(C)ccc2C(=O)NCc2ccc(C)cc2)CC1,-13,1.62
O=C(N1Cc2cccnc2C1)N(c1ccccc1)c1ccccc1,-3,0.66
Cc1nc(CNC(=O)CN2CCOCC2)oc1-c1ccc(Cl)cc1,-9,1.39
Cc1cnc(C)c(-c2cc(O)c3c(c2)CN(Cc2c[nH]cn2)CCO3)n1,-3,0.27
Cc1cc(F)cc(NC(=O)N2CCn3nc(N)cc3C2)c1,-9,1.71
Cc1ccc2c(c1)CN(CCOc1cccc(C(=O)O)c1)CCO2,-17,3.43
CCC(CC)C(=O)N[C@@H](C)c1nnnn1C1CC1,-6,0.56
O=C(CCCc1ccccc1)N1CCC[C@H](c2nnn[nH]2)C1,-5,0.78
O=C1CN(C(=O)CN2CCCCc3c(Cl)cccc32)CCN1,-3,0.38
CCn1cnnc1C[C@H]1CCN(C(=O)CCc2ccc(OC)cc2)C1,-13,2.21
Cc1cc(C)c2[nH]c(C)c(CC(=O)NCc3cnc(C)cn3)c2c1,8,-0.78
c1cc2c(cc1-c1ccc(N3CCCC3)nn1)OCCO2,-20,1.93
O=C(O)c1cn(CCCc2ccccc2)nn1,-18,2.34
CCCN(C)C(=O)Cc1cccc(N)c1,-16,2.01
CN1C(=O)CC[C@H]1C(=O)Nc1nc(C2CC2)c(Cc2ccccc2F)s1,-5,0.46
CCOC(=O)C(NC(=O)CCc1nc(C)c(-c2ccccc2)o1)C(C)CC (stereo not given),-2,0.4
CC[C@@H]1Oc2cc(S(=O)(=O)N(C)CC(=O)N3CCCCCC3)c(C)cc2NC1=O,-7,1.18
Cn1cnnc1C[C@H]1CCCN(C(=O)NCc2ccc(F)cc2)C1,-20,2.6
Cc1ccc(NC(=O)C2CCN(S(=O)(=O)c3c(C)nn(CC(=O)N4CCCC4)c3C)CC2)c(C)c1,-15,1.39

Structure (SMILES),% Inhibition [%],Z score
COC[C@@H]1CN(C(=O)COc2ccccc2)C[C@H]1c1nc(C2CC2)no1,-12,2.18
Cc1nnc(CN(C)CCc2cnn(C)c2)s1,-12,1.19
COC[C@@H]1[C@H](C(=O)Nc2ccc3c(c2)OCCO3)CCC(=O)N1C,8,-1.44
Cc1cc(C(=O)NCc2csc(N)n2)cc(C)n1,-9,0.83
CCN(Cc1[nH]nc(C)c1Cl)[C@H]1COC[C@@H]1O,0,0.03
COc1cccc(N2C[C@@H](NC(=O)c3ccc(S(=O)(=O)N4CCOCC4)cc3)CC2=O)c1,-17,3.31
COc1cccc2c1NC(=O)C[C@H]2C(=O)Nc1cnn(C)c1C,-22,4.09
C[C@H]1CN(S(=O)(=O)c2cccc(C(=O)NCCc3cnccn3)c2)CCN1,15,-1.91
Cc1ncc(C(=O)N2CC[C@H](C)N(Cc3ccccc3)CC2)c(C)n1,4,-0.69
O=C(COCc1nc2ccccc2[nH]1)NC[C@@H]1COc2ccccc2C1,-3,0.61
CCn1cccc1-c1noc(CNC(=O)c2cc(-c3ccc(F)cc3)nn2C)n1,-15,1.96
Cc1ccc(-c2nc(N3CCOCC3)ncc2-c2ccc(CC(=O)O)cc2)cc1,-6,0.82
CC[C@H]1CCCCN1C(=O)C1=CC(c2cc(OC)ccc2OC)=NS(=O)(=O)N1C,-6,1.15
CNc1nc2c(c(C(=O)N3CCCC3)n1)CN(Cc1sccc1C)CC2,3,-0.47
c1ccc(-c2n[nH]c([C@@H]3CCCN3c3ncnc4ccsc34)n2)cc1,-15,2.97
Cc1cccc(NC(=O)c2cc3ccc4ccc(C)nc4c3[nH]2)c1,-3,0.57
CC1(C)OB(c2cnsc2)OC1(C)C,2,-0.22
Cc1ccc([C@@H](C)CCN2CCC(c3ncon3)CC2)o1,-2,0.36
Cn1ccnc1-c1csc(NC(=O)CCc2ccoc2)n1,-10,1.25
C[C@]1(NS(=O)(=O)c2c(Cl)cc(F)cc2Cl)CCOC1,-6,1.09
Cc1cccc(NC(=O)Cn2cnc3c(c2=O)CCCC3)c1,-1,0.12
CN1c2ccccc2C(C)(C)[C@@]12CC(c1cccc(S(=O)(=O)N3CCCC3)c1)=NO2,-7,1.18

Structure (SMILES),% Inhibition [%],Z score
CCC(CC)[C@H](CNC(=O)Nc1ccn(CCOC)n1)N(C)C,5,-0.64
C[C@H]1CCc2cc(F)ccc2N1C(=O)c1cc(-c2ccc(Br)cc2)nc2ccccc12,2,-0.24
CCCc1cc(NC(=O)[C@@H]2CCCN2C(=O)c2ccccn2)n[nH]1,5,-0.78
CCn1cc(C)c(C(=O)O)c1CC(=O)Nc1ccc(F)c(Cl)c1,5,-0.62
Cc1cc(CNc2cc([C@H]3CCOC3)ncn2)ccc1F,-6,1.09
CCNC(=O)N(C)CC(=O)N1N=C(c2cccn2C)C[C@H]1c1ccc(C)cc1,3,-0.41
Cc1nc2ccccn2c1CNC(=O)N[C@H](c1cccnc1)C1CC1,-17,2.02
Cc1occc1C(=O)NC1CC(C)(F)C1 (stereo not given),-6,1.18
COc1cc(CNCc2cccs2)ccc1OCc1ccccc1C,34,-0.5
Cc1cc(NC2c3ccccc3CCCC2C)n2ncnc2n1 (stereo not given),-10,0.86
CCc1ccccc1N1C(=O)CN(S(=O)(=O)c2ccccc2)C[C@@]1(C)C(=O)NC1CCCC1,-10,1.24
Cc1c(C(=O)N2c3ccccc3N(C)CC2(C)C)nnn1C(C)C,-6,0.78
Cc1cc(=O)n(CC(=O)Nc2cccc(C#N)c2)c(-c2ccncc2)n1,-15,2.86
O=C1N(CCOc2ccc(F)cc2)c2ccccc2NC12CCNCC2,3,-0.62
COCCn1c(-c2cnn(-c3ccccc3)c2)nc2ccccc21,-14,1.51
NC(=O)c1ccc(C(F)(F)F)n(Cc2cc3c(cc2Br)OCO3)c1=O,-13,2.08
Cc1ccc([C@@H]2CCCCCN2C(=O)Nc2cc(Cl)ccc2C)s1,6,-1.15
C#CCN(Cc1ccco1)[C@H]1CCN(CC(F)(F)F)C1=O,-8,1.07
CN1CCCN(c2ccc3ccc(F)cc3n2)CC1,-5,0.48
CC[C@H]1CN(c2ccncc2F)CCN1C,-8,1.72
O=C1CC[C@H](NC(=O)Nc2ccc(F)cc2F)CN1,2,-0.42
CN(Cc1nnc2ccccn12)c1ccccn1,8,-1.46

Structure (SMILES),% Inhibition [%],Z score
O=C1CCC(C(=O)NC(CC(F)(F)F)c2ccc(Cl)cc2)CN1 (stereo not given),-9,1.38
CC(O)C1CCN(C(=O)NCCc2ccc(-c3ccccc3)cc2)C1 (stereo not given),-9,0.97
CN1CC2CN(S(=O)(=O)c3cccc4nsnc34)CC(C1)O2,31,-3.76
CCOc1ncccc1CNC(=O)c1ccc2nc(-c3ccccc3)cn2c1,-1,0.22
O=C(Nc1ccc2nn(-c3ccc(Br)cc3)nc2c1)c1ccc2c(c1)OCCO2,-13,1.52
O=C(c1nnn2c1c(=O)[nH]c1cc(F)ccc12)N1CCN(c2ccccc2)CC1,6,-1.07
Cc1n[nH]c(C)c1[C@@H](N)C(=O)NCCCCc1ccccn1,-5,0.55
CNC(=O)[C@@H]1CCCCN1Cc1cccn1Cc1cccs1,-12,1.1
NC(=O)[C@@H]1C[C@@H](F)CN1C(=O)CCc1ncc(-c2ccccc2)o1,-11,1.44
Cc1[nH]ncc1CNC(=O)[C@@]12CCCC[C@H]1N(C1CC1)S(=O)(=O)CC2,3,-0.58
CC(C)c1ccc(-c2nc(NCCN3CCCCC3)nc3nn(C)c(N)c23)cc1,-2,0.36
O=c1c2cccnc2ncn1[C@H]1CCN(Cc2ccccc2)C1,-6,0.76
CN1CCCC2(CC1)CCN(c1cnc3ccccc3n1)CC2,6,-1.27
CN(Cc1ccoc1)[C@@H](C(=O)O)c1ccccc1C(F)(F)F,-5,0.92
Cn1nc(C(F)(F)F)c(NC(=O)N2CCCCCCC2)c1Cl,13,-1.77
O=C1CCCCN1CCC(=O)N1CCO[C@@H](Cc2ccccc2Cl)C1,-2,0.24
CC[C@H](Nc1nc(C)nc2onc(C)c12)c1cnn(C)c1,7,-1.31
CC[C@@]1(C)CC(=O)c2cc(NC(=O)NCCc3csc(N)n3)ccc2O1,-21,2.2
Cc1ccc(S(=O)(=O)Nc2ccc(N3C(=O)C[C@H](c4ccc(OC(C)C)cc4)C3=O)cc2)cc1,-4,0.5
